According to publication PMC10668032:
The other results are listed elsewhere or left out. At the low end of the ranking the order means little.

Each sequence was assayed against SIX1-Q177R homeodomain (UniProt Q15475) (assay: universal protein binding microarray). Conditions: Universal all-10-mer PBM (8x60K, AMADID 030236), 300 nM GST-tagged protein, Alexa Fluor 488 anti-GST; buffer, salt, pH and temperature not stated; high values mean tight binding; most listed sequences are background and not binding sites; double strand, one strand shown.

| Sequence | binding signal |
| --- | --- |
| GCAAGAGA | -0.198 E-score |
| ATACAGGC | -0.26 E-score |
| CGGGCGAC | 0.215 E-score |
| CTGCATAA | -0.0537 E-score |
| ATTTGTGA | -0.0853 E-score |
| ACGAGAAG | -0.025 E-score |
| CTTGCCCA | -0.171 E-score |
| TGTCGAAA | 0.196 E-score |
| AGCCTATA | -0.161 E-score |
| ATGTTGAC | -0.0419 E-score |
| AATATATT | -0.237 E-score |
| ATAATACA | 0.166 E-score |
| AGCTAGTC | -0.227 E-score |
| ATCGGGGA | 0.0925 E-score |
| AGTTGCAT | 0.0222 E-score |
| CTCGTTCC | -0.1 E-score |
| CGCAGAAC | -0.0421 E-score |
| AGAATCAG | -0.111 E-score |
| GCCCTAAA | -0.0722 E-score |
| AATTCATC | -0.232 E-score |
| TCGTATAA | -0.158 E-score |
| ATTCCGCG | -0.0292 E-score |

| Sequence | binding signal |
| --- | --- |
| CATATTGG | -0.0511 E-score |
| AAGTATCT | -0.109 E-score |
| TGCTAGAA | -0.158 E-score |
| AGGGGTTG | 0.0874 E-score |
| GCTCATAC | -0.137 E-score |
| CCGCACGA | 0.127 E-score |
| CGATTGTC | -0.157 E-score |
| CTACAGAA | -0.212 E-score |
| GGACACCC | 0.48 E-score |
| GTATGTCA | -0.0582 E-score |
| AATTATTG | -0.239 E-score |
| GTAGCCGA | -0.0107 E-score |
| AACGAGCA | 0.062 E-score |
| GTATGTAA | -0.0767 E-score |
| CCTGATCA | -0.0324 E-score |
| AACAAAAG | -0.187 E-score |
| AGCATAGG | -0.16 E-score |
| GACGTTGC | -0.231 E-score |
| CAAAAGGG | -0.0275 E-score |
| ATCATTGA | -0.0439 E-score |
| GACGGACC | -0.174 E-score |
| CAGCGGAA | -0.331 E-score |

| Sequence | binding signal |
| --- | --- |
| TCATTAAA | -0.0948 E-score |
| ACATTCAT | -0.276 E-score |
| AACCCTCA | 0.113 E-score |
| TCGGGACA | 0.0925 E-score |
| CAATTAGC | -0.121 E-score |
| GAGACCGA | -0.0916 E-score |
| ATCGGCAC | 0.175 E-score |
| CCTACCAG | -0.164 E-score |
| ACTCACGC | 0.0814 E-score |
| CAGAGATA | -0.0053 E-score |
| AGTCAACC | -0.0208 E-score |
| GGGTTCAC | 0.184 E-score |
| AGGAAGAG | -0.181 E-score |
| AATCCCCT | 0.0434 E-score |
| TCGCGAGA | -0.159 E-score |
| ATATCTTC | -0.131 E-score |
| AGAAGTAG | -0.171 E-score |
| AGCCCCAT | -0.122 E-score |
| CACTACCA | 0.227 E-score |
| AATGTTGC | -0.0683 E-score |
| AAGGTGGG | 0.0518 E-score |
| GCGGAATA | -0.0323 E-score |

| Sequence | binding signal |
| --- | --- |
| TCCTACGA | -0.047 E-score |
| AAGACGGT | 0.0423 E-score |
| ATGAGAAC | -0.0295 E-score |
| CGCGGGTA | 0.273 E-score |
| ATGCTATA | -0.237 E-score |
| ATCGTTGC | -0.0129 E-score |
| AATAGATA | -0.137 E-score |
| GGCCTCGA | -0.0916 E-score |
| ATCCTAAA | -0.0399 E-score |
| ACAGTGGC | -0.0762 E-score |
| AGAGGCTC | -0.223 E-score |
| ACCCGCAC | 0.147 E-score |
| TTCTACAA | 0.0242 E-score |
| GGTCAGAC | -0.146 E-score |
| ACATCTCC | -0.2 E-score |
| ATACTACC | 0.0251 E-score |
| AACCACCT | -0.0487 E-score |
| ACAAGGAG | -0.0319 E-score |
| CGTATTAA | 0.012 E-score |
| ATAACATG | -0.0879 E-score |
